The values that follow come from patent US20140127211A1.

Several values for one entry are separate records, joined by “and”; a condition that tells them apart may be missing. Identical values can stand only once.

This experiment has as its target full-length human Notch3 expressed on the cell surface (human) (UniProt Q9UM47). Description: cell-based or functional assay.
Sequence of UniProt Q9UM47 (Q9UM47 40-2321): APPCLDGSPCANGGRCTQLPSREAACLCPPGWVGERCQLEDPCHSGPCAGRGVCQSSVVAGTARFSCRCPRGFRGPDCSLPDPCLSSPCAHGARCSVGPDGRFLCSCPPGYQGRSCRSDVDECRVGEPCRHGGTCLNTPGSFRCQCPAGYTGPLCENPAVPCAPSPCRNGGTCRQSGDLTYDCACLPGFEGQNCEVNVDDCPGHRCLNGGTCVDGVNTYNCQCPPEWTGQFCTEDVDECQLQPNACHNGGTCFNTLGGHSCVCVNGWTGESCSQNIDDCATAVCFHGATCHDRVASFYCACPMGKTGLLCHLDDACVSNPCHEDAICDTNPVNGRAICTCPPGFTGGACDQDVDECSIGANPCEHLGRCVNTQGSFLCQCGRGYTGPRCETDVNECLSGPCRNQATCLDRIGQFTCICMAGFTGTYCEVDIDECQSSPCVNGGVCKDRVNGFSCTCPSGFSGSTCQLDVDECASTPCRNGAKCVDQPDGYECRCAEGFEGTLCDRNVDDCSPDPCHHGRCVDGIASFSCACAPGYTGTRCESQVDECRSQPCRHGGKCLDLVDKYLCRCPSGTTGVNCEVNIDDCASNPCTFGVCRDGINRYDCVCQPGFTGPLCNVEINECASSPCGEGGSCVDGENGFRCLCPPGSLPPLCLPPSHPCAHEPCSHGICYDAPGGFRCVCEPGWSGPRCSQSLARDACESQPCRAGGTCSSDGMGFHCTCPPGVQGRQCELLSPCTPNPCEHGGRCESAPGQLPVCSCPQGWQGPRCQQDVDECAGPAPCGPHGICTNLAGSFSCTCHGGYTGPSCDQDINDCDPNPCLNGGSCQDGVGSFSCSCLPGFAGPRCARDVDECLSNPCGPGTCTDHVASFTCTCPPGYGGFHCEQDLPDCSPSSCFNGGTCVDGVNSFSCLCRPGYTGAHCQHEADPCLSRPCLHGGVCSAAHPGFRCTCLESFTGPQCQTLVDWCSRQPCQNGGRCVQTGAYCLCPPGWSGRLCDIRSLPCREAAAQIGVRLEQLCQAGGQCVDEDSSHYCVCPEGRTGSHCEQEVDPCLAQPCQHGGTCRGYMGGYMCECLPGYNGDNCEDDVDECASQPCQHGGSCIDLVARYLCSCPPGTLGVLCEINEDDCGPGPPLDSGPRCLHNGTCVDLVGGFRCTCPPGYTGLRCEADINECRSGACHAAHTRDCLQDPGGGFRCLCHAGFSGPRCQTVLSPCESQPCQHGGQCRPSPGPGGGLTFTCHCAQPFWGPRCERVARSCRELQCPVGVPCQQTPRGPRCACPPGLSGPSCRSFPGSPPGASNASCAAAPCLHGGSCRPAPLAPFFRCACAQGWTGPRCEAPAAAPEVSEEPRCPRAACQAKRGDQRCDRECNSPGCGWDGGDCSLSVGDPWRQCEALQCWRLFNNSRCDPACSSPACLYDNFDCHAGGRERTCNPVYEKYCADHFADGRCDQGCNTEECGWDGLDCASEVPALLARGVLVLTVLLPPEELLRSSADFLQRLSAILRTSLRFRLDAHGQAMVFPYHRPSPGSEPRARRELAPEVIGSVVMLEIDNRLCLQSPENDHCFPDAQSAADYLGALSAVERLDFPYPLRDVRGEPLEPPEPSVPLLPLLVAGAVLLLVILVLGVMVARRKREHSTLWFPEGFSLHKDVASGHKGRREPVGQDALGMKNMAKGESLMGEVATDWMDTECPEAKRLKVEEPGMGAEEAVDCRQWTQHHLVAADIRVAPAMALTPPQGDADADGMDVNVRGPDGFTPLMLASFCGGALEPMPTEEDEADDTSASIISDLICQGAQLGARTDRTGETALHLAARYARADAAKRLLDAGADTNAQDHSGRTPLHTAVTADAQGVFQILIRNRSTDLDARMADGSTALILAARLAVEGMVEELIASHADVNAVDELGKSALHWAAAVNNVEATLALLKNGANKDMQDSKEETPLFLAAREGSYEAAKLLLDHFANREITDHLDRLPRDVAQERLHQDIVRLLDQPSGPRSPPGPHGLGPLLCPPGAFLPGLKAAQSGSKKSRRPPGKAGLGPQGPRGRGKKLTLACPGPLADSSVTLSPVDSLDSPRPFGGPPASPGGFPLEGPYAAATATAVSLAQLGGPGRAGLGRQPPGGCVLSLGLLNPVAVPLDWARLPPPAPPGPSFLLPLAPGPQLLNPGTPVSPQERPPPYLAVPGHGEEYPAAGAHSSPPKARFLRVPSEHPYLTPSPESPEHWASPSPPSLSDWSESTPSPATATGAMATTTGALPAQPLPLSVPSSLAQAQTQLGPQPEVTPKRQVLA

B1: hu28-(L443C)-vc0101 (antibody, name in EU numbering)
heavy: EVQLVESGGGLVQPGGSLRLSCAASGFTFRDYGMTWVRQAPGKGLEWVAYISSGSNYIYYAEAVKGRFTISRDNAKNSLYLQMNSLRAEDTAVYYCARRGPFVLDAWGQGTLVTVSSASTKGPSVFPLAPSSKSTSGGTAALGCLVKDYFPEPVTVSWNSGALTSGVHTFPAVLQSSGLYSLSSVVTVPSSSLGTQTYICNVNHKPSNTKVDKKV[letters of human IgG1 Fc with L443C (EU numbers) omitted]
light: DIQMTQSPSSLSASVGDRVTITCKASQSINRYLHWYQQKPGKAPKLLIYNANGLQTGVPSRFSGSGSGTDFTLTISSLQPEDFATYYCLQHNTWPDTFGGGTKVEIKRTVAAPSVFIFPPSDEQLKSGTASVVCLLNNFYPREAKVQWKVDNALQSGNSQESVTEQDSKDSTYSLSSTLTLSKADYEKHKVYACEVTHQGLSSPVTKSFNRGEC
modifications: vc0101 linker-payload on the engineered cysteine (site-specific conjugation)
As for B1, the IC50 of cytotoxicity (MTS viability), HCC2429 cells (column read by position) is 20300 ng Ab/ml and 16900 ng Ab/ml and 14300 ng Ab/ml; the IC50 of cytotoxicity (MTS viability), OVCAR3 cells (column read by position) is 13100 ng Ab/ml and 15800 ng Ab/ml and 12200 ng Ab/ml.
